The record followed here is article PMC5700166.

Test in all cases: protein-binding microarray (PBM)
Settings in all cases: PBM: ~300 nM protein, 6 mM HEPES pH 7.8, 80 mM KCl, 0.5 mM EDTA, 0.5 mM EGTA, 6% glycerol, 35 ng/ul poly-dIdC, 1% milk, 1 h, room temperature; Ap Aiptasia and Nv Nematostella (sea anemones) / Co Capsaspora / Aq Amphimedon (sponge) / Dm Drosophila / Hu human; RHD is the Rel homology domain; high values mean tight binding; most listed sequences are background and not binding sites; double strand, one strand shown

The target of one test is T1, GST-Ap-NF-kB RHD (UniProt A0A913YAJ5).
T1 sequence: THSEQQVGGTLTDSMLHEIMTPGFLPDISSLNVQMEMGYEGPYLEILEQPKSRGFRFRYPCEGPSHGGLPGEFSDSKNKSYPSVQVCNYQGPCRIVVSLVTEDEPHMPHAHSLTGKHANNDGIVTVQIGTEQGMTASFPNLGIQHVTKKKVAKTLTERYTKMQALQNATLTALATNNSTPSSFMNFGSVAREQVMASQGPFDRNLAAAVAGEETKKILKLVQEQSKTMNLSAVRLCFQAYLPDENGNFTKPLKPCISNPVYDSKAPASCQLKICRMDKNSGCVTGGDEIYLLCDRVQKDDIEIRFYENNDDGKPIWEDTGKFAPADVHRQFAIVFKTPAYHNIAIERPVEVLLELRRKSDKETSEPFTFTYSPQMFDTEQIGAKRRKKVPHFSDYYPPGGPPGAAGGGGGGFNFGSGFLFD

Test [1] deals with T2, GST-Nv-NF-kB (Cys allele) (UniProt E5G601).
T2 sequence: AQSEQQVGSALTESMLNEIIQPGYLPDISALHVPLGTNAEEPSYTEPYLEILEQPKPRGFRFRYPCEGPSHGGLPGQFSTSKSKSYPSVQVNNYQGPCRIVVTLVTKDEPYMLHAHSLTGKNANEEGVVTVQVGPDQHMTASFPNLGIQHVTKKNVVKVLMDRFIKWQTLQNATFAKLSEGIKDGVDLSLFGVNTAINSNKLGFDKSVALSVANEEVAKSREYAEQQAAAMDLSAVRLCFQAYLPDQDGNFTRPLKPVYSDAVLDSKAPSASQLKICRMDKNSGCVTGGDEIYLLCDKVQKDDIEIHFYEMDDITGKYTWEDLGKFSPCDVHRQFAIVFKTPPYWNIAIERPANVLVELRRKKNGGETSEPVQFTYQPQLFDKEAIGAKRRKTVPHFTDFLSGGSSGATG

The target of the next test is T3, GST-Co-NF-kB (UniProt F1ARL5).
T3 sequence: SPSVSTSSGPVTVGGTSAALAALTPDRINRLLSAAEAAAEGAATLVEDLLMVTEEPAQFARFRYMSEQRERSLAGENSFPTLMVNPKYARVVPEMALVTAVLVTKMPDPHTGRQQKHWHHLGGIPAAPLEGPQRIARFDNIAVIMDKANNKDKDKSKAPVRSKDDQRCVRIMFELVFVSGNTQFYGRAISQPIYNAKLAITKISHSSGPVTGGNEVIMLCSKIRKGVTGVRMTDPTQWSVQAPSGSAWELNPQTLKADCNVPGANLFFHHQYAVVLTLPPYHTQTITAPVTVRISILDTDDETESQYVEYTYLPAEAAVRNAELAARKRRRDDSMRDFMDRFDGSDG

Another test deals with T4, GST-Dm-Relish (UniProt Q94527).
T4 sequence: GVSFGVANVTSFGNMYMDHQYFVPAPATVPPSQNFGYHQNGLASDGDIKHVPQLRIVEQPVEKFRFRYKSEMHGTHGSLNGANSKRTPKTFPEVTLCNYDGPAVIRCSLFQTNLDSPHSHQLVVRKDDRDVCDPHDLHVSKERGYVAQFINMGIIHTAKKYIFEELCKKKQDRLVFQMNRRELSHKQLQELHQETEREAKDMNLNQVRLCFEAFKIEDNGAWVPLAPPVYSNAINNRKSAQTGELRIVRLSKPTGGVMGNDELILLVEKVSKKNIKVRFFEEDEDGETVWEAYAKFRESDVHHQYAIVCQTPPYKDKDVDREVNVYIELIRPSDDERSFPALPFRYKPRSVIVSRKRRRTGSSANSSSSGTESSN

In another test the target is T5, GST-Aq-NF-kB (UniProt A9Y5G7).
T5 sequence: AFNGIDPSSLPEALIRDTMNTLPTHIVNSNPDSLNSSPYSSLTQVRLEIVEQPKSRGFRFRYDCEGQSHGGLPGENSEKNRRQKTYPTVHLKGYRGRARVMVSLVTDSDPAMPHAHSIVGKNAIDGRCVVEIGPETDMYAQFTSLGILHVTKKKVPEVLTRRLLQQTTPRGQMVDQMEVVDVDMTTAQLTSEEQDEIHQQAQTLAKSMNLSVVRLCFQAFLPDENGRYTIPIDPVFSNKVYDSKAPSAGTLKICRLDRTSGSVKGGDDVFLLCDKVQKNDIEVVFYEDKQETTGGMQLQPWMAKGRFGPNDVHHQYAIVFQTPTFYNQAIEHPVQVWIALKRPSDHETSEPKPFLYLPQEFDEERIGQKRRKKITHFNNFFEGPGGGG

This is a selection; strong and weak results do not stand in their true shares. The list includes weakly bound sequences.

With “CCGATTAACATCAACGCCGGCATTGATGTTAATCGGGTCTTGATTCGCTTGACGCTGCTG”, the binding signal was -0.134 z-score with GST-Ap-NF-kB RHD; 0.364 z-score in test [1]; -1.04 z-score with GST-Co-NF-kB; -1.16 z-score with GST-Dm-Relish; -0.545 z-score with GST-Aq-NF-kB.
For “CCGATTAACATCAGTAGTAGCCCTGATGTTAATCGGGTCTTGATTCGCTTGACGCTGCTG”, the binding signal with GST-Ap-NF-kB RHD is -0.0294 z-score; in test [1], -0.211 z-score; with GST-Co-NF-kB, -0.374 z-score; in the test with GST-Dm-Relish it was -0.335 z-score; in the test with GST-Aq-NF-kB, 0.013 z-score.
Regarding “CCGATTAACATCACGTCTCCATGTGATGTTAATCGGGTCTTGATTCGCTTGACGCTGCTG”, the binding signal in the test with GST-Ap-NF-kB RHD is -0.537 z-score; in test [1], 0.756 z-score; with GST-Co-NF-kB, 0.176 z-score; with GST-Dm-Relish, 0.787 z-score; with GST-Aq-NF-kB, -0.414 z-score.
Taken in the same sequence, the figures for “CCGATTAACATCAGGCCTTTCCATGATGTTAATCGGGTCTTGATTCGCTTGACGCTGCTG” were -0.681 z-score, 0.406 z-score, -0.162 z-score, 1.71 z-score and 0.853 z-score.
As to “CCGATTAACATCAACGACACCACTGATGTTAATCGGGTCTTGATTCGCTTGACGCTGCTG”, the binding signal with GST-Ap-NF-kB RHD was -0.164 z-score; in test [1], -0.899 z-score; with GST-Co-NF-kB, -0.606 z-score; with GST-Dm-Relish, -0.057 z-score; in the test with GST-Aq-NF-kB, -0.415 z-score.
With “CCGATTAACATCACGACAGTTATTGATGTTAATCGGGTCTTGATTCGCTTGACGCTGCTG”, the binding signal with GST-Ap-NF-kB RHD is -0.166 z-score; in test [1] it was -0.613 z-score; with GST-Co-NF-kB, 0.562 z-score; with GST-Dm-Relish it was -0.344 z-score; with GST-Aq-NF-kB it was -0.345 z-score.
Consider “CCGATTAACATCAGCGTAGCGAATGATGTTAATCGGGTCTTGATTCGCTTGACGCTGCTG”, for which the binding signal with GST-Ap-NF-kB RHD is -0.355 z-score; in test [1], -0.542 z-score; in the test with GST-Co-NF-kB, -1.53 z-score; with GST-Dm-Relish, -0.716 z-score; with GST-Aq-NF-kB, -0.626 z-score.
Taken in the same sequence, the figures for “CCGATTAACATCAAAGTAAGATCTGATGTTAATCGGGTCTTGATTCGCTTGACGCTGCTG” were -0.601 z-score, 0.18 z-score, 0.0823 z-score, -0.584 z-score and -0.607 z-score.
Taken in the same sequence, the figures for “CCGATTAACATCATGATATGCTTTGATGTTAATCGGGTCTTGATTCGCTTGACGCTGCTG” were -0.961 z-score, 0.25 z-score, 0.337 z-score, -0.363 z-score and -0.42 z-score.
In the case of “CCGATTAACATCACAGCAGTACCTGATGTTAATCGGGTCTTGATTCGCTTGACGCTGCTG”, the binding signal was 0.401 z-score in the test with GST-Ap-NF-kB RHD; 0.442 z-score in test [1]; -0.731 z-score with GST-Co-NF-kB; 0.6 z-score with GST-Dm-Relish; 0.333 z-score in the test with GST-Aq-NF-kB.
With “CCGATTAACATCATAATCCATTGTGATGTTAATCGGGTCTTGATTCGCTTGACGCTGCTG”, the binding signal in the test with GST-Ap-NF-kB RHD is -0.869 z-score; in test [1], -0.824 z-score; with GST-Co-NF-kB, -0.2 z-score; with GST-Dm-Relish it was -0.363 z-score; in the test with GST-Aq-NF-kB, -0.376 z-score.
Taken in the same sequence, the figures for “CCGATTAACATCACGTTCTAAAGTGATGTTAATCGGGTCTTGATTCGCTTGACGCTGCTG” were -0.699 z-score, -0.909 z-score, -0.248 z-score, -0.00906 z-score and -0.596 z-score.
